The campaign covered roughly 310,000 compounds. About 14,000 (4.5%) showed an effect of 50% or more. The effect is printed as a negative number. Some of the results follow.
Biological target: human ether-à-go-go-related gene (hERG) potassium channel (human, UniProt Q12809)
Experiment: primary screen, population patch clamp on CHO cells stably expressing hERG
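Note: peak tail current of the secondary pulse compared with the same well before compound.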

human ether-à-go-go-related gene (hERG) potassium channel, sequence (Q12809 whole entry, looked up): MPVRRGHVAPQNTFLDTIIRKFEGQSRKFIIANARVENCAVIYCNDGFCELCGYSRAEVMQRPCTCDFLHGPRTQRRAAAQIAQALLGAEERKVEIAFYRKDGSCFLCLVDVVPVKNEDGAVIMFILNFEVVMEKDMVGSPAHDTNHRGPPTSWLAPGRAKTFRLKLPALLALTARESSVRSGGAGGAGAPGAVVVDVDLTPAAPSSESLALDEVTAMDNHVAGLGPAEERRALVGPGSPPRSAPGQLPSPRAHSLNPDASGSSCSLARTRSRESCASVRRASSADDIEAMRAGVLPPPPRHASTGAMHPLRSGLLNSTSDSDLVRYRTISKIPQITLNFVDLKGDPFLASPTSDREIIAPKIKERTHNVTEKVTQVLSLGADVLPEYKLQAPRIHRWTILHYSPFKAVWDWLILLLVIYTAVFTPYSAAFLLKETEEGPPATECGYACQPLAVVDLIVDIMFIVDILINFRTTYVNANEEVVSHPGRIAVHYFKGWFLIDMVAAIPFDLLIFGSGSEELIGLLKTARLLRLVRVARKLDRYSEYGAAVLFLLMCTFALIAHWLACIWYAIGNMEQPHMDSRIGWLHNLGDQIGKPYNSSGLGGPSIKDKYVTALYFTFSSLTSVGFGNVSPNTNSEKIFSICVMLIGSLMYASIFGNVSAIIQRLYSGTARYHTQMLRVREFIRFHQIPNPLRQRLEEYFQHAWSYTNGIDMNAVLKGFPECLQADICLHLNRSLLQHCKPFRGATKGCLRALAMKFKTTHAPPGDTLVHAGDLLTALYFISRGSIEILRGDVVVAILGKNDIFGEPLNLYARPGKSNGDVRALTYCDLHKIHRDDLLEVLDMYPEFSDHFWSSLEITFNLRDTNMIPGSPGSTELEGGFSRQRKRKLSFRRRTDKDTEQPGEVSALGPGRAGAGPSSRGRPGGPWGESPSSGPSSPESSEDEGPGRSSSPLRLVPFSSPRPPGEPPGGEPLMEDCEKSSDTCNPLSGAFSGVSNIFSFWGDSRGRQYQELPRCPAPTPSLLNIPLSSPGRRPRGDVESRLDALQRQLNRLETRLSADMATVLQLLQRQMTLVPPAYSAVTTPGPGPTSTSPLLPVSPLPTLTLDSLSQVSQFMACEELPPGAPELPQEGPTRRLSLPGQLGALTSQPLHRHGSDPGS

| Structure (SMILES) | hERG current change (%, negative = inhibition) at 10uM |
| --- | --- |
| O=C(c1ccc(N2C(=O)C3CCCCC3C2=O)cc1)N1CCCCC1 (centres unmarked) | -2.22% |
| CC(C)c1ccc(NC(=O)Cn2c(=O)oc3ccccc32)cc1 | 19.5% |
| CC(C)Cn1c(N)c(C(=O)COC(=O)c2ccccc2F)c(=O)n(C)c1=O | -14.7% |
| CCCCOc1ccc(CNC(=O)NS(=O)(=O)c2ccc(OCC)cc2)cc1 | 13% |
| CC(NC(=O)/C=C/c1ccccc1[N+](=O)[O-])C1CC2CCC1C2 (centres unmarked) | 8.42% |
| CCOC(=O)C1C(c2ccc(C(=O)O)cc2)NC(=O)NC1(O)C(F)(F)F (centres unmarked) | -1.42% |
| COc1ccc(O)c(C(=O)c2cc(C#N)c(=O)n(CC3CCCO3)c2)c1 (centres unmarked) | -25.3% |
| Cc1ccc(C)c(-n2c3nc(=O)[nH]c(=O)c-3cc3cc([N+](=O)[O-])ccc32)c1 | -15% |
| O=C(Nc1cc2c3c(c1)CC(=O)N3CCC2)c1ccccc1F | 0.297% |
| COc1ccc(C(=O)N/C(=C\c2ccco2)C(=O)NCCN2CCOCC2)cc1 | 8.33% |
| COC(=O)c1ccc(C2=NOC(C)(c3nnc(Cc4ccccc4)o3)C2)cc1 (centres unmarked) | -0.775% |
| CN(C(=O)COC(=O)c1cc(NS(=O)(=O)c2cc([N+](=O)[O-])ccc2Cl)ccc1O)C1CCCCC1 | -17.1% |
| Nc1ccc(C(=O)OCC(=O)NC2CCCc3ccccc32)cc1[N+](=O)[O-] (centres unmarked) | -2.26% |
| CN1CCN(S(=O)(=O)c2ccc3c(c2)CC(=O)N3C)CC1 | 4.24% |
| CC(NC(=O)OC(C)(C)C)C(=O)Oc1cc2oc(=O)cc(-c3ccccc3)c2cc1Cl (centres unmarked) | -0.559% |
| Cc1ccc(Sc2nc(C)cc(C)c2S(C)(=O)=O)cc1 | 2.54% |
| O=C(O)CSc1nnc(COc2ccc([N+](=O)[O-])cc2)n1-c1ccccc1 | 12.3% |
| CCN(c1ccc(OC)cc1)S(=O)(=O)c1nnc(NC(=O)COc2ccc(F)cc2)s1 | 18.6% |
| CCC(C)c1ccc(OCC(=O)Nc2ccc(CN3CCOCC3)cc2)cc1 (centres unmarked) | -36.2% |
| O=C(CSCc1c(F)cccc1Cl)Nc1cccnc1 | -3.54% |
| CN(C)C(=O)c1ccc(-n2cnc3ccccc3c2=O)cc1 | 8.8% |
| COc1ccc(/C=N/NC(=O)CN(C2=NS(=O)(=O)c3ccccc32)c2ccccc2)cc1 | 1.4% |

| Structure (SMILES) | hERG current change (%, negative = inhibition) at 10uM |
| --- | --- |
| CC(=O)SC(C)CC(=O)NCc1ccccc1 (centres unmarked) | 22.7% |
| Cc1ccc(F)cc1NCC(=O)Nc1ccc(Br)cc1 | 13.1% |
| CC(C)(C)c1ccc(CS(=O)(=O)CC2(O)CCN(C(=O)c3cccc(C(F)(F)F)c3)CC2)cc1 | 1.21% |
| COC(=O)C1=C(c2ccc3ccccc3c2)C[C@@H]2CC[C@H]1N2C(=O)N1CCCC1 | 0.423% |
| CN=C(c1ccccc1)c1c(C)cccc1C | -2.39% |
| CC(C)N(CCCNC(=O)c1ccc(N2CCCC2=O)cc1)Cc1ccccc1 | -4.69% |
| O=C(Cc1ccc(Cl)cc1)c1c[nH]c(C(=O)NCCCN2CCOCC2)c1 | -38.5% |
| CN1CCN(CCNC(=O)Cn2c(=O)c3cccn3c3ccc(F)cc32)CC1 | 14.1% |
| Cc1ccccc1N=C1NN=C(c2ccccc2F)CS1 | 13.1% |
| CC(Sc1nc2ccccc2o1)C(=O)O (centres unmarked) | 7.4% |
| CSc1ncccc1C(=O)OCC(=O)NC(N)=O | 17.9% |
| Cc1ccccc1-n1c(SCc2ccccn2)nc2n[nH]c(C)c2c1=N | -1.97% |
| Cc1nc(NCCc2ccc(Cl)cc2)c2nnn(Cc3ccccc3)c2n1 | 16.2% |
| CC(C)(C)OC(=O)N1CCC(NC(=O)c2[nH]cnc2C(=O)Nc2cccc(Cl)c2)CC1 | 14.5% |
| COc1ccc(NC(=O)CNC(=O)Cc2cccc3ccccc23)c(OC)c1 | 2.01% |
| Cc1ccc(OCC(O)CN2CCCC2)cc1 (centres unmarked) | 11.5% |
| Clc1ccccc1Nc1ncnc(-n2cccc2)n1 | -1.62% |
| CCCCOc1ccc(C(=O)N2CCCC2)cc1 | -13.4% |
| COc1ccc2cc(CN(C(=O)Nc3ccccc3OC)C3CCCC3)c(=O)[nH]c2c1 | -46.9% |
| CC(NC(=O)CN1CCc2ccccc21)c1ccccc1 (centres unmarked) | 8.5% |
| CC(C)CCn1c(N2CCC(C(N)=O)CC2)nc2c1c(=O)[nH]c(=O)n2C | 11.1% |
| COC(=O)c1cccc(NC(=S)N2CCCCC2)c1 | 14.1% |
